Recombinant human monoclonal antibodies (heavy:light variable regions). ELISA EC50 on the named antigen, from 10 µg/ml down; lower = stronger. No active / inactive call.

Here are results for 20 molecules from the supplement of paper PMC8277577.

The target of the assay is SARS-CoV-2 Wuhan-Hu-1 spike receptor-binding domain. The assay can be described thus: ELISA binding EC50; higher = weaker binding; ELISA of recombinant human antibody on coated antigen, from 10 µg/ml in fourfold dilutions; four-parameter fit.

B1: C928 (protein)
chain 1: QVQLVESGGGVVQPGRSLRLSCAASGFTFSFFDMHWVRQAPGKGLEWVADISYDGSNQYYGDSVKGRFTISRDNSKSTLYLQMNSLRAEDTAVYYCAKPVDTAMFDSWGQGTLVTVSS
chain 2: SYELTQPPSVSVAPGETARITCGGNNIGHKSVHWYQQQPGQAPVLVIYYDSERPSGIPERFSGSNSGNTATLTISRVEAGDEADYHCQVWDGGNDHLVIFGGGTKLTVL
In the case of B1, the “ELISA binding EC50” value was determined as 4.14 ng/mL.

B2: C929 (protein)
chain 1: EVQLVESGGGLIQPGGSLRLSCAASGFTVSSNYMTWVRQAPGKGLEWVSVIYSGGTTYYADSVKGRFTISRDNSKNTLYLQMNSLRAEDTAVYYCARDLVVWGMDVWGQGTTVTVSS
chain 2: DIQLTQSPSFLSASVGDRVTITCRASQGISSYLAWYQQKPGKAPKLLIYAASTLQSGVPSRFSGSGSGTEFTLTISSLQPEDFATYYCQLLNSYPYTFGQGTKLEIK
Turning to B2, the “ELISA binding EC50” value was determined as 2.07 ng/mL.

B3: C930 (protein)
chain 1: EVQLVESGGGLFQPGGSLRLACAASGITVSSNYMSWVRQPPGKGLEWVSVIYAGGSTFYADSVKGRLTISRDNSKNTLYLQINSLRAEDTAVYYCARDLVVWGMDVWGQGTTVTVSS
chain 2: DIQLTQSPSFLSASVGDRVTITCRASQGISSYLAWYQQKPGKAPKLLIYAASTLQSGVPSRFSGSGSGTEFTLTISSLQPEDFATYYCQQLNTYPYTFGQGTKLEIK
Consider B3, for which the “ELISA binding EC50” value amounted to 1.24 ng/mL.

B4: C922 (protein)
chain 1: QVQLVESGGGLVKPGGSLRLSCAGSGFTFTDYYMAWIRQAPGKGLEWVSYISTSDRFINYADSVKGRFTISRDDAKNSLYLQMNSLRAEDTAVYYCARDGGGYDRFDHWGQGTLVTVSS
chain 2: DIQMTQSPSSLSASVGDRVTITCQASQDISNLLNWYQQKAGKAPKLLIYDASNLETGVPSRFSGSGSGTDFTFTISSLQPEDIATYYCLQYDNLPLTFGQGTKLEIK
On to B4, for which the “ELISA binding EC50” value was found to be 2.42 ng/mL.

B5: C924 (protein)
chain 1: QVQLVESGGGVVQPGRSLRLSCAASGFTFSSYGMHWVRQAPGKGLEWVAVISDDGSNKYYADSVKGRFTISRDNSKNTLYLQMNSLRAEDTAVYYCAKSWWLSENWFDPWGQGTLVTVSS
chain 2: EIVMTQSPATLSVSPGERATLSCRASQSVSSNLAWYQQKPGQAPRLLIYGASTRATGIPARFSGTGSGTEFTLTISSLQSEDFAVYYCQQYNNWPLTFGGGTKVEIK
Take B5: the “ELISA binding EC50” value was 2.5 ng/mL.

B6: C925 (protein)
chain 1: QVQLVESGGGVVQPGRSLRLSCAASGFTFSNYGLHWVRQAPGKGLEWVAVTSDDGNRKYYADSVKGRFTISRDDSKNTLYLQMNNLRTEDTAVYYCAKSWWLSENWFDPWGQGTLVTVSS
chain 2: EIVMTQSPATLSVSPGERATLSCRASQSVRSNLAWYQQRPGQAPRLLIYGAFTRATGIPARFSVSGSGTEFTLTIDSLQSEDFAVYYCQQYNNWPLTFGGGTKVEIK
In the case of B6, the “ELISA binding EC50” value is 2.26 ng/mL.

B7: C911 (protein)
chain 1: QVQLVESGGGVVQPGGSLRLSCAASAFTFSSYAMHWIRQSPGKGLEWVAVISSDGSSKFYADSVKGRFTISRDNSKNTLYLQMNSLSAEDTAVYYCARDLENVLIEVALQDWGQGTLVTVSS
chain 2: DIQMTQSPSSLSASVGDRVTITCRASQSINSYLNWYQQKPGKAPKLLIYAASSLHSGVPSRFSGSGSGTDFTLTISSLQPEDFATYYCQQSYTTLALTFGGGTKVEIK
Take B7: the “ELISA binding EC50” value was 2.36 ng/mL.

B8: C847 (protein)
chain 1: QVQLVESGGGVVQPGGSLRLSCGASGFTFSSYAMHWVRQAPGEGLEWVAVILYDGAGKFYADSVKGRFTISRDNSKNTLYLQMNSLRAEDTAVYYCARDYGDYVTHFDYWGQGALVTVSS
chain 2: DIQMTQSPSSLSASVGDRVTITCRASQSISSYLNWYQQKPGKAPKLLIYTASSLQSGVPSRFSGSGSGTDFTLTITSLQPEDFATYYCQQSYNTPPWTFGQGTKVEIK
For B8, the “ELISA binding EC50” value stood at 3.06 ng/mL.

B9: C849 (protein)
chain 1: QVQLVQSGAEVKKPGASVKVSCRASGYTFTDHYIHWVRQAPGQGLEWMGWINPNSGDTNYPQKFQGRVTMARDTSISTAHMELRRLKSDDTAVYYCARTSSPHSSSTGDFDSWGQGTLVTVSS
chain 2: SYELTQPPSVSVAPGKTARITCGGDDIGSKSVHWYQQKSGQAPVLVIHDDSDRPSGIPERFSGSNSGNTATLTISRVEAGDEADYYCQVWDFTGDHPGWVFGGGTKLTVL
With B9, the “ELISA binding EC50” value was found to be 3.64 ng/mL.

B10: C914 (protein)
chain 1: QVQLQESGPGLVKPSQTLSLTCTVSGGSITSGDYYWTWIRQPPGKGLEWIGYIYYSGNTYYNLSLRSRITISEDTSKNQFSLKLRSVTAADTAVYYCARAMITFGGVIVVLDYWGQGTLVTVSS
chain 2: QSALTQPPSASGSPGQSVTISCTGTSTDVGGYNFVSWYQQHPGKAPKLMIYEVSKRPSGVPDRFSGSKSGNTASLTVSGLQAEDEADYYCSSYAGSNILYVFGTGTKVTVL
For B10, the “ELISA binding EC50” value is 1.59 ng/mL.

B11: C915 (protein)
chain 1: QVQLQESGPGLVKPSQTLSLTCTVSGGSISSGDYYWSWIRQPPGKGLEWIGYIYYSDSTYYNPSLRTRVTISVDTSKNQFSLKLTSVTAADTAVYYCARAMITFGGVIVLYDYWGQGTLVTVSS
chain 2: QSALTQPPSASGSPGQSVTISCTGTSSDVGGYNYVSWYQQHPGKAPKLMIYEVTKRPSGVPARFSGSKSGNTASLTVSGLQAEDEADYYCSSYAGSILLYVFGTGTKVTVL
With B11, the “ELISA binding EC50” value was 3.49 ng/mL.

B12: C920 (protein)
chain 1: QLQLQESGPGLVKPSETLSLTCAVSGGSISNSPFYWGWIRQPPGKGLECIGSIYYSGSTYYNPSLKSRVTISVDTSKKQFSLKLSSVTAADTAVYYCARHFADGSGRVVDSWGQGILVTVSS
chain 2: EIVLTQSPATLSLSPGERATLSCRASQSVSSYLAWYQQKPGQAPSLLIYDVSNRATGIPARFSGSGSGTDFTLTISSLEPEDFAVYYCQQRINWPLYTFGQGTKLEIK
Turning to B12, the “ELISA binding EC50” value turned out to be 2.35 ng/mL.

B13: C921 (protein)
chain 1: QLQLQESGPGLVKPSETLSLTCAVSGGSISNSPFYWAWIRQPPGKGLECIGSIYYTGSTYYNPSLKSRVTISVDTSTKQFSLKLRSVTAADTAVYYCARHFADGSGRVVDYWGQGTLVTVSS
chain 2: EIVLTQSPATLSLSPGERATLSCRASQSVTTYLAWYQQKPGQAPRLLIYDVSSRATGIPARFSGSGSGTDFTLTISSLEPEDFAVYYCQQRSNWPLYTFGQGTKLEIK
With B13, the “ELISA binding EC50” value came to 3.91 ng/mL.

B14: C926 (protein)
chain 1: QVQLVESGGGVVQPGRSLRLSCAASGFGLITYSMHWVRQAPGKGLEWVGLISFDGNTTYYADSVRGRFTISRDNLANILYLQMNSLRPDDTALYYCARDKRGVIRGLLNFWGQGSLVTVSS
chain 2: DIVMTQSPDSLAVSLGERATINCKSSQSLLPSSNSNNYLAWYQQKSGQPPNLLIYWASTRESGVPDRFSGSGSETDFSLTISNLQAEDVAVYYCQQYYNTPHTFGGGTKVEI
On to B14, for which the “ELISA binding EC50” value is 4.72 ng/mL.

B15: C934 (protein)
chain 1: QVQLVQSGAEVKKPGASVKVSCKASGYTFTDYYIHWVRQAPGQGLEWMGWINPNSGGTNYAQKFQGRVTMTRDTSISTAYMDLSRLRSDDTAVYYCARDVIITMGRGVVFRMDVWGQGTTVTVSS
chain 2: not shown
As for B15, the “ELISA binding EC50” value was found to be 0.95 ng/mL.

B16: C918 (protein)
chain 1: QVQLVESGGGLVKPGGSLRLSCTASGFTFSDYYMTWLRQAPGKGLEWVSYISSTSPYTSYADSVKGRFTISRDNARNSVYLQMNSLRAEDTAIYYCARVPPPQRLHPFDVWGQGTMVTVSS
chain 2: DIQMTQSPSTLSASVGDRVTITCRASQSISSWLAWYQQKPGKAPKLLIYQASSLESGVPSRFSGSGSGTDFTLTISSLQPDDFATYYCQQYFRYSWTFGQGTKVEI
Take B16: the “ELISA binding EC50” value was determined as 1.78 ng/mL.

B17: C848 (protein)
chain 1: QVQLQESGPGLVKPSQTLSLTCTVSGGSISSGDYYWSWIRQPPGKGLEWIGYIYYTGITYYRPSLKSRVTISVDTSKNQFSLKLSSVTAADTAVFYCARVVRLWPRYFDSWGQGTLVTVSS
chain 2: QSALTQPPSASGSPGQSVTISCTGTSSDVGTYDYVSWYQQHPGKAPKVIIYEVTKRPSGVPDRFSGSKSGNTASLTVSGLQAEDEAHYYCSTYAGSDNLEFGGGTKLTVL
With B17, the “ELISA binding EC50” value was found to be 2.23 ng/mL.

B18: C927 (protein)
chain 1: QVQLVESGGGVVQPGRSLRLSCVASGFTFSYFDMHWVRQAPGKGLEWVALISHDGSTTFYGDSARGRFTISRDNSRNTLDLQMNSLRPEDTAVYFCAKPVDAAMFDFWGQGTLVTVS
chain 2: SYELTQPPSVSVAPGKTARITCGGNNIGSKSVHWYQQRPGQAPVLVIYYDSDRPSGIPERFSGSNSGNTATLTISRVEAGDEADFYCQVWDRSTNHLVVFGGGTQLTVL
With B18, the “ELISA binding EC50” value was determined as 3.77 ng/mL.

B19: C913 (protein)
chain 1: EVQLVESGGVVVQPGGSLRLSCAASGFTFDDYSMHWVRQVPGKGLEWIAVIFWDGTSTYYADSVKGRFTISRDNSKKSLYLQMNSLRSEDTALYYCAKDSEDCSSTSCYVDHWGQGTLVTVSS
chain 2: not shown
Turning to B19, the “ELISA binding EC50” value amounted to 2.58 ng/mL.

B20: C932 (protein)
chain 1: QVQLVESGGSVVQPGKSLRLSCAGSGFAFSTYGMHWVRQAPGKGLEWVAVISSDGGNKYYADSVKGRFTISRDNYENTLYLQMNSLGAEDTAVYYCAKVALRGVFISLYYGMDVWGQGTTVTVSS
chain 2: SYELTQPPSVSVTPGQTASITCSGDKLGDKYACWFLQKPGQSPLLVIYQDTKRPSGIPDRLSGSKSGNTATLTISGTQAMDEADYYCQTWDSSAVVFGGGTKLTV
Turning to B20, the “ELISA binding EC50” value was 3.57 ng/mL.
